About 1,200 (2.5%) of roughly 48,000 compounds were called active. Not shown: some 2% with an inconclusive outcome.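 How the source made its calls: active means activation of at least 60% and not above a set upper limit (about 1 call in 100 departs from these limits); inconclusive means activation of 40% to 60%, or above that upper limit; inactive means activation under 40%.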 Some of the results follow.
Each compound was assayed against Probable G-protein coupled receptor 32 (Homo sapiens) (UniProt O75388) (assay: qHTS for Agonists of Human Resolvin D1 Receptor DRV1). Conditions: CHO-K1 GPR32 beta-arrestin PathHunter luminescence, 90 min; at 76.9 µM; active compounds read high; zero percent set by DMSO-only wells.
In short: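 Readings come from a cell-based beta-arrestin complementation format: CHO-K1 GPR32 stable cells (2,500/well) treated 90 min with compounds, then beta-Gal substrate added for 1 h before chemiluminescence imaging.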
Further: 0% is about no effect.

Sequence of UniProt O75388 (O75388 whole entry, looked up): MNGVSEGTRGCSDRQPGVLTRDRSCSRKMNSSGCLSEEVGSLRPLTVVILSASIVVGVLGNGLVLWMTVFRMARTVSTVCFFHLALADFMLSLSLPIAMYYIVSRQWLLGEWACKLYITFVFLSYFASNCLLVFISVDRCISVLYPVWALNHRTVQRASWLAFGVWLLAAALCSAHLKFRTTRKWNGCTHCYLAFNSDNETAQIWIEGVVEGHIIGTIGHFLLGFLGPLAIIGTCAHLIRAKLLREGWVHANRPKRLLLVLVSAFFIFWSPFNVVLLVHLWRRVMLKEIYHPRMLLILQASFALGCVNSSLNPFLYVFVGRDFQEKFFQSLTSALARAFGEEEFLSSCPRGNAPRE

Row | Compound | activation
1 | CCOc1ccccc1CNS(=O)(=O)c1cc2c(cc1C)NC(=O)CO2 | inactive: -14.6%
2 | Cc1ccccc1CNC(=O)CCC(=O)N1CCSc2ccccc21 | inactive: -14.9%
3 | COc1ccc(NC(=O)c2c(NC(=O)COc3ccccc3)sc3c2CCCCC3)cc1 | inactive: 14.7%
4 | O=C(Cn1cc(S(=O)(=O)Cc2ccccc2Cl)c2ccccc21)NCCc1ccccc1 | inactive: -5.5%
5 | COc1ccc(NC(=O)CC2C(=O)N(c3cccc(OC)c3)C(=O)N2CCC2=CCCCC2)cc1 (stereo not given) | inactive: -6.98%
6 | CCOc1ccc(CC(=O)NCc2ccc3c(c2)CCN3C(=O)c2ccccc2)cc1OCC | inactive: -22.6%
7 | COc1ccc(NC(=O)CCNS(=O)(=O)c2ccc3c(c2)CCCC(=O)N3)cc1 | inactive: -0.458%
8 | Cc1ccc(-c2cc3ncc4c(n3n2)-c2cc(Cl)ccc2OC4)cc1 | inactive: -17.5%
9 | O=C(NCc1ccc(F)cc1)C(=O)Nc1ccc2nc3n(c(=O)c2c1)CCCCC3 | inactive: 6.72%
10 | CCn1nnc2cc(C(=O)Nc3cc(C)ccc3C)ccc21 | inactive: -4.24%
11 | Cc1ccccc1N1CC(c2nnc(NC(=O)c3ccco3)s2)CC1=O (stereo not given) | inactive: 1.44%
12 | Cc1cccc(N2CCN(Cc3cc(=O)oc4cc(C)ccc34)CC2C)c1 (stereo not given) | inactive: -23.2%
13 | CC(C)c1ccc(CNc2nc(-c3ccco3)nn2S(=O)(=O)c2ccc(F)cc2)cc1 | inactive: -11.3%
14 | Cc1cccc(NC(=O)N2CCC(N3CCN(Cc4ccccc4)C(=O)C3=O)CC2)c1C | inactive: -15.6%
15 | CCOc1ccc(OCC(=O)NCCS(=O)(=O)N2CCN(c3cccc(Cl)c3)CC2)cc1 | inactive: 22.6%
16 | CC(C)(C)C1CCc2onc(C(=O)Nc3sc4c(c3C#N)CCCC4)c2C1 (stereo not given) | inactive: 7.19%
17 | O=C(c1cc(-c2ccc(F)cc2)on1)N1CCN(c2ccc(F)cc2)CC1 | inactive: 9.88%
18 | O=C(O)CC1CC(c2ccccc2)=NO1 (stereo not given) | inactive: -1.83%
19 | CCCC1N=C2c3ccccc3N=C(SCC(=O)NCCc3ccc(Cl)cc3)N2C1=O (stereo not given) | inactive: -2.59%
20 | Cn1nc(C(=O)N2CCN(c3ccccc3F)CC2)c2c1-c1ccccc1S(=O)(=O)C2 | inactive: -7.87%
21 | O=C(CN1C(=O)c2cccc3cccc1c23)Nc1ccccc1Br | inactive: -1.06%
22 | CCCCNS(=O)(=O)c1ccc2nc(-c3cccnc3)cc(C(=O)NC(C)C)c2c1 | inactive: -8.06%
23 | CCn1c(C(=O)Nc2ccc(C)cc2C)cc2sc(Cl)cc21 | inactive: -16.4%
24 | Cc1oc2ncnc(N3CCOCC3)c2c1C(=O)NCCc1ccccc1 | inactive: -12.4%
25 | CCCOC(=O)CSc1nnc(-c2ccccc2)o1 | inactive: -4.13%
26 | CCOC(=O)c1ccccc1NC(=O)c1cc2ccc3cccnc3c2[nH]1 | inactive: -17.3%
27 | CCOC(=O)COc1ccc(C)cc1C(=O)c1ccn2nc(-c3ccc(Cl)cc3)cc2n1 | inactive: -6.7%
28 | CC(C)NC(=O)c1ccc2c(c1)nc1n2CCCCC1 | inactive: -9.7%

Row | Compound | activation
29 | CCc1ccc(/C=C(/C#N)c2nc(-c3ccc(C)cc3)cs2)cc1 | inactive: 13.2%
30 | O=C(C1CC1)N1CCc2cc(Br)cc(S(=O)(=O)Nc3ccc(F)c(F)c3)c21 | inactive: 37.6%
31 | Cc1cc(C)cc(N2CCn3c2nc2c3c(=O)n(Cc3c(F)cccc3Cl)c(=O)n2C)c1 | inactive: 1.02%
32 | O=S(=O)(NCC(c1ccco1)N1CCN(c2ccccc2)CC1)c1cc(F)ccc1F (stereo not given) | inactive: -23.4%
33 | CCc1ccc2oc(-c3ccc(C)c(NC(=O)Cc4ccccc4)c3)nc2c1 | inactive: 16.8%
34 | O=C(Cn1c(=O)c(CNc2ccccc2)cc2cc3c(cc21)OCCO3)Nc1ccccc1Cl | inactive: -33.2%
35 | CC(C)(C)OC(=O)N1CCC(c2c(C(=O)NCCN3CCOCC3)cnn2-c2cccc(Cl)c2)CC1 | inactive: -10.8%
36 | Cn1c(=O)c2c(nc(CN3CCN(c4ccccc4F)CC3)n2Cc2ccc(F)cc2)n(C)c1=O | inactive: -19.9%
37 | Cc1nn(C)c2c1c(C(F)(F)F)cc(=O)n2Cc1ccc(Br)cc1F | inactive: -0.0942%
38 | CCOc1ccc(N(Cc2ccccc2)C(=O)c2nc(SC)ncc2Cl)cc1 | inactive: -32.4%
39 | O=c1c(S(=O)(=O)c2ccccc2)cn(Cc2ccccc2)c2cc(N3CCCC3)c(F)cc12 | inactive: -11.7%
40 | Cc1cc(C)cc(C(=O)NCCc2sc(-c3ccc(F)cc3)nc2C)c1 | inactive: -11.2%
41 | Clc1ccc(C(c2ccc(Cl)cc2)n2cc[n+](CC(OCc3ccc(Cl)cc3Cl)c3ccc(Cl)cc3Cl)c2)cc1 (stereo not given) | inactive: -3.48%
42 | Cc1cccc(NC(=O)CSc2nc3n[nH]c(C)c3c(=N)n2-c2cccc(Cl)c2)c1 | inactive: -12.5%
43 | N#Cc1ccc(NC(=O)COCc2cc(-c3ccco3)on2)cc1 | inactive: -14.2%
44 | CCOC(=O)C1CCN(CCC(=O)Nc2ccccc2OC)CC1 | inactive: -4.56%
45 | COc1ccc(OC)c(C2CC(=O)Nc3c2c(=O)[nH]c2nc4ccccc4n32)c1 (stereo not given) | inactive: 3.02%
46 | Cc1cccc(CN2CCN(CC(=O)NCCc3ccc(Cl)cc3)C2=O)c1 | active: 74.8%
47 | Cc1cc(C)c(NC(=O)c2oc3c(c2C)-c2[nH]ncc2CC3)c(C)c1 | inactive: -2.85%
48 | Cc1ccc(C(=O)Nc2ccc(C(=O)O)cc2)cc1S(=O)(=O)N1CCC(C)CC1 | inactive: 0.872%
49 | Cc1cccc(-c2nc3scc(CCNS(=O)(=O)c4ccc(F)c(C(F)(F)F)c4)n3n2)c1 | inactive: -0.876%
50 | CCCCOc1ccc(C(=O)NCc2cn3cccc(C)c3n2)cc1 | inactive: -9.98%
51 | CCOC(=O)c1ccccc1NC(=O)CN1C(=O)CC(c2ccccc2)Sc2ccccc21 (stereo not given) | inactive: -2.42%
52 | Fc1ccccc1N1CCN(c2ncnc3onc(-c4ccc(Cl)cc4)c23)CC1 | inactive: -3.45%
53 | COc1ccc(Cl)cc1NC(=O)CSc1nc2c(oc3ccccc32)c(=O)n1Cc1ccco1 | inactive: 0.997%
54 | Cc1ccc(NC(=O)/C=C/c2ccco2)cc1F | inactive: -4.77%
55 | CCOc1ccc(N(C)C(=O)C2CCN(S(=O)(=O)c3c(C)noc3/C=C/c3ccc(C)cc3)CC2)cc1 | inactive: -23.5%
